# From patent publication US9849135B2, “USP14 inhibitors for treating or preventing viral infections” (priority 2013, dated 2017)
# Columns and labels:
# [1] = test system: DENV2 (New Guinea C strain); test: DENV2 replication in HEK293T cells preincubated with IU1, titer by plaque assay on Vero cells
# Procedure: To determine the effect of USP14 inhibition on viral replication, 2×10^5 HEK293T cells that were preincubated with various concentrations of IU1 (ENAMINE Ltd., Kiev, Ukraine) were infected for 4 h, with DENV2 (New Guinea C strain) at 0.1 moi. After 70 h at 37° C., supernatant was collected and the viral titer was determined by plaque assay on Vero cells. The viral yield was reduced by 20 fold in the presence of 75 μM IU1, with a half maximal effective concentration (EC50) of 40 μM (FIG. 1A).
# [2] = test system: HeLa cells; test: cells; conditions: Homo sapiens, 48 h, read-out: half maximal inhibitory concentration (IC50), cell viability
# Procedure: (§1) Cell viability was also evaluated to make sure that the titer reduction was not due to compound cytotoxicity. Cell viability was measured using the cell proliferation based MTT [3-(4,5-dimethylthiazol-2-yl)-2,5-diphenyl tetrazolium bromide] assay. Cell viability assays were carried out for both HEK293 T and HeLa cells. Each well of a 96-well plate was seeded with 2×10^4 cells in 100 μl DMEM. After overnight incubation, media were removed and replaced with 100 μl of fresh media containing either DMSO or various concentrations (0-1000 μM) of IU1 in DMSO. Cell viability was determined after 48 h at 37° C. using a MTT cell-proliferation kit from ATCC, following the manufacturer's protocol. […] This is the first observation that enhanced protein degradation inhibits viral replication. The results are unexpected, because inhibition of the UPS reduces the viral yield.
# [3] = test system: HEK293 T cells; test: cells; conditions: Homo sapiens, HEK-293T, 48 h, read-out: half maximal inhibitory concentration (IC50), cell viability
# Procedure: as §1
# [4] = test system: DENV2; conditions: compared with HEK293 T cells; data not shown
# Procedure: as §1
structure (smiles),measurement,setting,value
"Cc1cc(C(=O)CN2CCCC2)c(C)n1-c1ccc(F)cc1 [IU1, 1-(1-(4-fluorophenyl)-2,5-dimethyl-1H-pyrrol-3-yl)-2-(pyrrolidin-1-yl)ethanone]",viral yield reduction,"[1]; 75 μM IU1, HEK293T cells preincubated, 0.1 moi, 70 h",20 fold
same,EC50,"[1]; Dengue virus, HEK-293T, HEK293T cells preincubated with IU1, DENV2 titer, read-out: half maximal effective concentration (EC50)",40 µM
same,IC50,[2],259 µM
same,IC50,[3],300 µM
same,inhibition of DENV2 replication in HeLa cells,[4],a similar result was obtained in HeLa cells
